By IC50 is meant the dose at which the fit gives 50% viability; a limit (>, <) means that the fit lies beyond the doses tested. The AUC spans the tested range (256-fold, ending at the top dose) of the same fit; the more sensitive the line, the further below 1. An inferred top dose comes from the curve model; the source does not state it.
Compound: CC1=C(C(=O)Nc2cc3cn[nH]c3cc2F)C(c2ccc(C(F)(F)F)cc2)CC(=O)N1 [GSK429286A]
Experiment: Viability of human cancer cell lines after 72 h of drug (GDSC screen)
Conditions: top dose inferred
Experimental: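 Human cancer cell lines in 384-well plates, medium with 10% serum, drug for 72 h over a 256-fold dose range (nine 2-fold or five 4-fold steps up to the top dose). Adherent lines were fixed and stained with the nucleic acid dye Syto60, suspension lines read with resazurin; signal relative to control wells, capped at 0 and 100%. One two-parameter sigmoid per drug and line, fitted in a mixed model over all curves with the slope shared within a line.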

Cell Line | AUC | IC50 [µM]
HT-144 (melanoma, adherent, top dose 20 µM) | 0.981 | > 20
HT-1080 (fibrosarcoma, adherent, top dose 20 µM) | 0.981 | > 20
HT-1197 (bladder, adherent, top dose 20 µM) | 0.985 | > 20
HT-1376 (bladder, adherent, top dose 20 µM) | 0.985 | > 20
HTC-C3 (thyroid, adherent, top dose 20 µM) | 0.913 | > 20
HUTU-80 (digestive system, adherent, top dose 20 µM) | 0.921 | > 20
HeLa (cervix, adherent, top dose 20 µM) | 0.97 | > 20
Hep 3B2_1-7 (liver, adherent, top dose 20 µM) | 0.981 | > 20
Hey (ovary, adherent, top dose 20 µM) | 0.979 | > 20
Hs633T (fibrosarcoma, adherent, top dose 20 µM) | 0.936 | > 20
Hs683 (glioma, adherent, top dose 20 µM) | 0.984 | > 20
Hs746T (stomach, adherent, top dose 20 µM) | 0.905 | > 20
Hs766T (pancreas, adherent, top dose 20 µM) | 0.98 | > 20
Hs939-T (melanoma, adherent, top dose 20 µM) | 0.986 | > 20
Hs940-T (melanoma, adherent, top dose 20 µM) | 0.89 | > 20
Hs-445 (Hodgkin lymphoma, suspension, top dose 20 µM) | 0.924 | > 20
Hs-578-T (breast, adherent, top dose 20 µM) | 0.983 | > 20
HuCCT1 (biliary tract, adherent, top dose 20 µM) | 0.984 | > 20

Cell Line | AUC | IC50 [µM]
HuH-7 (liver, adherent, top dose 20 µM) | 0.979 | > 20
HuO9 (osteosarcoma, adherent, top dose 20 µM) | 0.963 | > 20
HuO-3N1 (osteosarcoma, adherent, top dose 20 µM) | 0.928 | > 20
HuP-T3 (pancreas, adherent, top dose 20 µM) | 0.983 | > 20
HuP-T4 (pancreas, adherent, top dose 20 µM) | 0.938 | > 20
IA-LM (large cell lung carcinoma, adherent, top dose 20 µM) | 0.983 | > 20
IGR-1 (melanoma, adherent, top dose 20 µM) | 0.987 | > 20
IGR-37 (melanoma, adherent, top dose 20 µM) | 0.976 | > 20
IHH-4 (thyroid, semi-adherent, top dose 20 µM) | 0.993 | > 20
IM-95 (stomach, adherent, top dose 20 µM) | 0.974 | > 20
IMR-5 (neuroblastoma, adherent, top dose 20 µM) | 0.863 | 12.9
IPC-298 (melanoma, adherent, top dose 20 µM) | 0.984 | > 20
IST-MEL1 (melanoma, adherent, top dose 20 µM) | 0.949 | > 20
IST-MES1 (mesothelioma, adherent, top dose 20 µM) | 0.98 | > 20
IST-SL1 (small cell lung carcinoma, semi-adherent, top dose 20 µM) | 0.92 | > 20
IST-SL2 (small cell lung carcinoma, suspension, top dose 20 µM) | 0.949 | > 20
J82 (bladder, adherent, top dose 20 µM) | 0.969 | > 20
